Among the data in the supplement of paper PMC4723716 are viability index values, retold here.

The experiment deals with Plasmodium falciparum NF54 stage V gametocytes. Briefly: viability index relative to DMSO control (fraction); higher = less gametocyte killing. As to conditions: 2.5 µM, library set: Broad Institute DOS, incubation time: 72 h. Summed up:
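Stage V gametocytes of P. falciparum NF54 were held in serum-free screening medium at 0.75% gametocytemia and 1.25% hematocrit, 10 µl per well of a 1,536-well plate, and exposed to compound at 2.5 µM for 72 hr at 37°C under low oxygen. A 3 µl mix of 2.5 µM MitoTracker Red CMXRos with 0.13% saponin was then added for one to two hours, after which one field per well was imaged and red particles of 20–70 µm2 were counted. The viability index equals this count divided by the plate mean from wells given solvent alone.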

± gives the uncertainty stated by the source. Whole data set: some 9,900 compounds, median “viability index relative to DMSO control” near 1, cut for the lowest 2% near 0.85. Some of the results follow.

`Cc1noc(C)c1NC(=O)N(C)C[C@H]1OCc2cn(nn2)CCCC(=O)N([C@H](C)CO)C[C@H]1C`: the viability index is 1.07 ± 0.033.

`O=C([C@H]1N[C@H]2c3ccc(-c4ccc(F)cc4)c(=O)n3C[C@H]2[C@@H]1CO)N1CCc2ccccc2C1` gave a viability index of 1.02 ± 0.026.

With `C[C@@H]1CN([C@@H](C)CO)C(=O)c2cccc(NS(=O)(=O)c3cn(C)cn3)c2O[C@H]1CN(C)Cc1ccc(Oc2ccccc2)cc1`, the viability index was 0.967 ± 0.069.

As to `CNC[C@H]1OCc2cnnn2CCCC(=O)N([C@H](C)CO)C[C@H]1C`, the viability index turned out to be 1.09 ± 0.076.

As to `CCCNC(=O)C[C@@H]1CC[C@H]2[C@@H](COC[C@H](O)CN2C(=O)Nc2ccc(Cl)c(Cl)c2)O1`, the viability index came out at 1.12 ± 0.13.

For the compound `CO[C@H]1CN(C)C(=O)c2cc(NC(=O)c3ccc(F)cc3)ccc2OC[C@@H](C)N(C(=O)CC2CC2)C[C@H]1C`, the viability index is 1.099 ± 0.004.

Compound `COCC(=O)N1CC(=O)N2[C@@H](CO)[C@H](c3ccc(C#CC4CC4)cc3)[C@@H]2C1` displayed a viability index of 1.11 ± 0.072.

As for `O=C(CN1CCOCC1)N1CC[C@@H]2[C@@H](CO)Nc3ccc(-c4ccccc4F)cc3[C@@H]21`, the viability index was determined as 1.111 ± 0.0091.

The compound `COc1ccc2c3c([C@H](CO)N(C[C@]33CN(CC4CCOCC4)C3)C(=O)c3ccc(F)cc3)n(C)c2c1` came in with a viability index of 0.992 ± 0.016.

Take `COc1ccc2c3c([C@H](CO)N(C[C@]33CCN(CC3)C(=O)Nc3cccc(F)c3)C(=O)CN3CCOCC3)n(C)c2c1`: the viability index came out at 0.941 ± 0.018.

Turning to `CO[C@H]1CC[C@@H]2CCOc3ccc(C#N)cc3C(=O)N(C)C[C@@H](c3ccccc3)CC(=O)N(C)C[C@@H]1O2`, the viability index was 1.03 ± 0.06.

Regarding `C[C@H]1CCCCO[C@H](CN(C)C(=O)Nc2ccccc2)[C@@H](C)CN([C@@H](C)CO)C(=O)c2cc(NC(=O)Nc3ccccc3)ccc2O1`, the viability index amounted to 0.998 ± 0.087.

`CN(C)C(=O)C[C@@H]1C[C@H]2c3cc(NC(=O)Nc4ccc(F)cc4)ccc3O[C@H]2[C@H](CO)O1`: the viability index is 1.08 ± 0.043.

In turn, `COc1ccc2c3c([nH]c2c1)[C@H](CO)N(C[C@]31CN(C1)C(=O)c1ccccc1)S(C)(=O)=O` had a viability index of 1.05 ± 0.015.

Take `O=C(C[C@@H]1C[C@@H]2c3cc(NS(=O)(=O)c4ccc(F)cc4)ccc3O[C@@H]2[C@H](CO)O1)N1CCc2ccccc2C1`: the viability index was 1.13 ± 0.069.

Regarding `Cc1noc(C)c1NC(=O)Nc1cccc2c1O[C@@H](CN(C)Cc1ccc(C(=O)Nc3ccccc3N)cc1)[C@@H](C)CN([C@@H](C)CO)C2=O`, the viability index came to 0.982 ± 0.11.

The compound `CCS(=O)(=O)Nc1ccc2c(c1)C(=O)N(C)[C@H]1CC[C@@H](CC(=O)N[C@H]3CCN(Cc4ccccc4)C3)O[C@H]1CO2` returned a viability index of 1.2 ± 0.021.

`C[C@@H]1CN([C@@H](C)CO)C(=O)c2cc(NS(C)(=O)=O)ccc2O[C@@H](C)CCCCO[C@H]1CN(C)C(=O)Cc1ccccc1` gave a viability index of 1.02 ± 0.018.

`O=C(CCN1CCCCC1)N[C@H]1CC[C@H](CCn2cc(-c3cccc(F)c3)nn2)O[C@H]1CO` had a viability index of 1.08 ± 0.099.

Compound `CCCC(=O)Nc1ccc2c(c1)OC[C@@H](C)NC[C@@H](C)[C@@H](OC)CN(C)C2=O` showed a viability index of 1.02 ± 0.024.

`CCN(C[C@@H]1[C@@H](c2ccccc2)[C@@H](CO)N1CC1CC1)C(=O)c1ccccn1` registered a viability index of 0.996 ± 0.06.

Compound `COc1ccc(S(=O)(=O)Nc2ccc3c(c2)C(=O)N([C@H](C)CO)C[C@H](C)[C@@H](CN(C)Cc2ccc(C(F)(F)F)cc2)OCCCC[C@@H](C)O3)cc1` yielded a viability index of 0.899 ± 0.087.

Regarding `O=C(C[C@H]1CC[C@H]2[C@@H](COC[C@H](O)CN2Cc2cc(F)cc(F)c2)O1)Nc1nccs1`, the viability index came out at 1.13 ± 0.048.

`COc1ccc(S(=O)(=O)Nc2ccc3c(c2)C(=O)N([C@@H](C)CO)C[C@H](C)[C@H](CN(C)Cc2ccc(C(F)(F)F)cc2)OCCCC[C@@H](C)O3)cc1` showed a viability index of 1.05 ± 0.2.

Take `CN1C(=O)c2cc(NC(=O)c3cccc(Cl)c3)ccc2OC[C@H]2O[C@@H](CC(=O)NC3CCCCC3)CC[C@@H]21`: the viability index came out at 1.01 ± 0.012.

Turning to `O=C(c1ccccc1)N1[C@@H](CO)[C@@H](c2ccccc2)C12CN(Cc1nccs1)C2`, the viability index is 1.1 ± 0.012.

`O=C(Nc1ccc(Cl)cc1)N1C[C@@H]2[C@H](c3ccccc31)[C@@H](CO)N2CC1CCCCC1`: the viability index was found to be 0.987 ± 0.025.

With `C[C@H](CO)N1C[C@H](C)[C@H](CN(C)Cc2cccc3c2OCCCO3)OCc2cnnn2CCCC1=O`, the viability index is 0.981 ± 0.094.

`N#C[C@H]1[C@@H](c2ccc(C#Cc3cccc(F)c3)cc2)[C@@H](CO)N1C(=O)C1CCOCC1` had a viability index of 1.05 ± 0.058.

With `O=C(C[C@@H]1CC[C@H]2NC[C@@H](O)COC[C@@H]2O1)NCCc1ccncc1`, the viability index stood at 0.985 ± 0.065.

For the compound `CN1C[C@@H]2[C@H](c3ccccc31)[C@@H](CO)N2C(=O)C1CCOCC1`, the viability index came out at 1.02 ± 0.075.

Compound `O=C(Cc1ccccn1)N1CC(=O)N2[C@H](CO)[C@@H](c3ccc(C#CCC4CCCC4)cc3)[C@@H]2C1` had a viability index of 1.01 ± 0.056.

`C[C@@H]1CC(=O)N[C@@H](c2ccccc2)C/C=C\C[C@H](c2ccc3c(c2)OCO3)NC1=O`: the viability index came to 1.06 ± 0.057.

As for `C[C@@H]1CN([C@@H](C)CO)C(=O)c2cc(N(C)C)ccc2O[C@H]1CN(C)CC1CCCCC1`, the viability index amounted to 0.998 ± 0.053.

For `O=C(C[C@H]1CC[C@H]2NC[C@H](O)COC[C@@H]2O1)Nc1ccc(-c2ccccc2)cc1`, the viability index was found to be 1.088 ± 0.0014.

Consider `C[C@H](NC(=O)C[C@H]1CC[C@H]2[C@@H](COc3ccc(NS(=O)(=O)c4ccc(Cl)cc4)cc3C(=O)N2C)O1)c1ccccc1`, for which the viability index worked out at 1.091 ± 0.0098.
